Data taken from PubChem BioAssay AID1671194 (National Center for Advancing Translational Sciences (NCATS), 2021).
The whole screen tested about 140,000 compounds, of which about 240 (0.17%) were called active. The shares of active, inactive and inconclusive entries below differ from those in the screen. Calls follow the shape of the dose curve; as a rule, active = well fitted inhibition curve with a large enough effect; inconclusive = small, poorly fitted or top-dose-only effect; inactive = no such curve, though single readings can be large or run the other way. A potency beside an inconclusive call is a rough fit, not a confirmed value.

experiment: Primary qHTS assay for inhibitors of alpha-synuclein gene (SNCA) expression; details: HEK-293 SNCA-luciferase knock-in, luminescence, 24 h; series mostly up to 57.2 µM; also: nearly all actives have a fitted effect of over 45% in size
Potency is read from the fitted curve at half-maximal effect; tags tell the direction and shape of the fitted curve.

Potency, inconclusive:
OC[C@@H]1CN(Cc2cccnc2)C[C@H]1c1ccccn1 8.91 µM [inhibitor, partial curve], O=C(CN1C(=O)CCc2cc(S(=O)(=O)N3CCCCC3)ccc21)NCc1ccc(Cl)cc1 31.6 µM [inhibitor, partial curve, poor fit], Cc1ccc(/C=C/c2onc(C)c2S(=O)(=O)N2CCC(C(=O)NCc3ccc(OC(C)C)cc3)CC2)cc1 0.178 µM [inhibitor, full curve, poor fit], Cc1ccc(C)c(N2CCN(C(=O)CS(=O)(=O)c3cccc4nsnc34)CC2)c1 39.8 µM [inhibitor, single point], OC[C@@H]1CNC[C@H]1C1CCN(CC2CCCCC2)CC1 5.62 µM [inhibitor, full curve, poor fit], O=C(O)C1=NOC2CN([S+](=O)([O-])c3cccs3)CC12 (stereo not given) 44.7 µM [inhibitor, partial curve, poor fit], CCC(=O)N1Cc2ccccc2OC2(CCN(C)CC2)C1 4.47 µM [inhibitor, full curve, poor fit], COC(=O)c1sccc1S(=O)(=O)N(CC(=O)Nc1cccc(C)c1C)c1ccc(C)c(C)c1 39.8 µM [inhibitor, partial curve, poor fit], Cc1cccc(NC(=O)CSC2=Nc3ccccc3C3=NC(CCC(=O)NCc4ccco4)C(=O)N23)c1 (stereo not given) 8.91 µM [inhibitor, partial curve], CCc1ccc(-c2cn3nc(CC)sc3n2)cc1 17.8 µM [inhibitor, single point], O=C(Cn1nc2c(cc1=O)CCCCC2)NCCc1cccc(F)c1 7.94 µM [inhibitor, single point], O=C(NCc1nnc2ccc(-c3ccccc3)nn12)c1ccc(F)c(F)c1 35.5 µM [inhibitor, single point], CCc1ccc(C2c3c(-c4ccccc4O)n[nH]c3C(=O)N2Cc2cccnc2)cc1 (stereo not given) 39.8 µM [inhibitor, single point], Cc1cccc(C(=O)N2CCCCC2c2n[nH]c(C)n2)c1 (stereo not given) 3.16 µM [inhibitor, single point], COc1ccc(Nc2cc3c(cn2)NCCN(Cc2ccccc2)C3)cc1 28.2 µM [inhibitor, partial curve, poor fit], c1ccc(CN2CCNc3cc(NCc4cccnc4)ncc3C2)cc1 3.55 µM [inhibitor, partial curve, poor fit], Cc1ccc2c(CC(=O)Nc3ccc(S(=O)(=O)N4CCCCC4)cc3)coc2c1C 10 µM [inhibitor, single point], COc1ccc(C(=O)N2CCC3(CC2)CC(c2nc(C)no2)N(C)C3)cc1F (stereo not given) 3.16 µM [inhibitor, partial curve, poor fit], O=C(NCc1cccc(F)c1)C1CCCN(Cc2cccc(-c3ccc(F)cc3F)c2)C1 (stereo not given) 10 µM [inhibitor, partial curve, poor fit], Cc1ccc(CS(=O)(=O)c2ncc(Cl)c(C(=O)Nc3nnc(C(C)C)s3)n2)cc1 39.8 µM [inhibitor, single point], O=C1CO[C@H]2CN(Cc3ccc4c(c3)OCO4)C[C@H]2N1Cc1ccc(F)cc1 22.4 µM [inhibitor, partial curve], CCOc1ccc(C(=O)N2CCN(c3cc(-c4ccc(Cl)cc4)[nH]n3)CC2)cc1 14.1 µM [inhibitor, single point], CCOc1cc(C(C)(C)C)ccc1C1=N[C@@](C)(c2ccc(Cl)cc2)[C@@](C)(c2ccc(Cl)cc2)N1C(=O)N1CCN(CC(=O)N2CCOCC2)CC1 42.8 µM [inhibitor, single point], O=C1c2[nH]nc(-c3ccc(F)cc3)c2C(c2ccccc2F)N1c1ccccc1 (stereo not given) 10 µM [inhibitor, partial curve, poor fit], O=C(NCC1CCN(Cc2ccccc2F)CC1)Nc1ccc(F)c(Cl)c1 11.2 µM [inhibitor, partial curve, poor fit], COc1ccc(Br)cc1CNC(=O)CN1C(=O)c2cccnc2Oc2ccc(C)cc21 10 µM [inhibitor, partial curve], COc1ccc(NC(=O)c2nc(-c3ccc(C)cc3)n3c2CCCCC3)cc1 39.8 µM [inhibitor, single point], Cc1cccc(C(=O)NC2CCN(c3cc(-c4ccccc4)[nH]n3)C2)c1 (stereo not given) 39.8 µM [inhibitor, single point], CC1(C(=O)NCc2ccc3c(c2)OCO3)CCc2cnc(NCc3ccccc3)nc21 (stereo not given) 31.6 µM [inhibitor, partial curve, poor fit], COCCc1noc(-c2ccccc2OC2CN(C(=O)C(C)C)C2)n1 39.8 µM [inhibitor, single point], O=C(c1cccc(F)c1)N1CCCC(Cc2noc(-c3ccccc3)n2)C1 (stereo not given) 31.6 µM [inhibitor, single point], CN1CC(=O)N(C2CCCNCC2)Cc2c1ncnc2N1CCN(c2ncccn2)CC1 (stereo not given) 7.08 µM [inhibitor, single point], N#Cc1cccc(CN2CCC(c3nc4ccc(F)cc4c(=O)[nH]3)CC2)c1 17.8 µM [inhibitor, single point], COc1ccccc1N1CCN(C(=O)C2CCN(S(=O)(=O)c3cn(C)cn3)CC2)CC1 7.08 µM [inhibitor, single point], O=C(N[C@@H]1CN(C2CCSCC2)C[C@H]1CO)c1cccnc1 39.8 µM [inhibitor, single point], COc1ccccc1NC(=O)N1CCC(N2CC3CC(C2)[C@H]2CCCC(=O)N2C3)CC1 (stereo not given in full) 8.91 µM [inhibitor, single point], CCNc1cc(N2CCC(CCC(=O)Nc3ccc(C)cc3C)CC2)ncn1 39.8 µM [inhibitor, single point], COc1ccc2[nH]c3c(c2c1)CCNC31CCN(Cc2ccc(F)cc2F)CC1 39.8 µM [inhibitor, single point], COc1cccc(N2CCN(C(=O)c3cnn(-c4ccccc4Cl)c3C3CCN(C(=O)OC(C)(C)C)CC3)CC2)c1 31.6 µM [inhibitor, single point], Cc1ccc(N2CCN(C(=O)c3cccn4c(=O)c5ccc(Cl)cc5nc34)CC2C)cc1 (stereo not given) 5.62 µM [inhibitor, full curve], Cc1ccc(S(=O)(=O)C(CNC(=O)C(=O)NCCc2ccc(Cl)cc2)c2ccco2)cc1 (stereo not given) 7.08 µM [inhibitor, single point], O=C(c1cc2n(n1)CC(c1ccc(Br)cc1)OC2)N1CCOCC1 (stereo not given) 4.47 µM [inhibitor, single point]

Potency, inactive:
C=CCN1C[C@@H]2C[C@@H](C(=O)NC)N(C(=O)CCc3ccccc3)c3cccc(c32)C1=O, O=C1NC(=NC2CCCC2)C2(CCCN(Cc3ccccc3)C2)N1c1cc(F)cc(F)c1 (stereo not given), Cc1nc2ccc(C(=O)NC(C(=O)O)c3c(C)n[nH]c3C)cc2[nH]1 (stereo not given), Cc1nc(C2CCCN(C(=O)C(C)(C)N)C2)cc(N2CCCC2)n1 (stereo not given), Cc1ccccc1-c1nccc2c(=O)cc(N3CCOCC3)oc12, Cc1noc([C@H]2CCN(S(=O)(=O)Cc3ccccc3)C[C@H]2NC(=O)C2CC2)n1, CC(C)c1noc(-c2ccc(N(C)CC(O)c3ccccc3)nc2)n1 (stereo not given), COc1ccc(CN2C(=O)[C@H](OC)[C@@H]2C2=CCN(C(=O)C3CCCC3)CC2)cc1, CCc1nn(-c2ccc(OC)cc2)c(Oc2ccccc2F)c1CCC(=O)N(CC)CC, CN1CCN(c2ncnc3ccc(-c4ccc(C(=O)N(C)C)cc4)cc23)CC1, CCn1cc(S(=O)(=O)N2CCC(Oc3ccc(-c4noc(C5CC5)n4)cc3)C2)cn1 (stereo not given), COc1ccc(-c2ccnc3nc(C4CC4)nn23)cc1, O=C(NCC1CCCO1)N1CCc2c(nc3cc(-c4ccccc4Cl)[nH]n3c2=O)C1 (stereo not given), COCCOc1ncccc1-c1noc([C@@H]2CCCN2Cc2ccc(CO)o2)n1, COc1cccc(-c2c(C(=O)NCc3cccs3)nc3sccn23)c1, Cc1cc(-c2cc3c(cn2)CN(CC2CCOC2)CCN3)ccn1 (stereo not given), Cc1ccc(-c2ccc3nnc(CNC(=O)Cc4ccsc4)n3n2)cc1C, O=C(NCc1cccs1)c1cn2cc(-c3ccccc3)sc2n1, CC(C)CCN1CCC(O)(c2csc(CN3CCN(C)CC3)n2)CC1, COc1ccc2[nH]c(C[C@@H]3C[C@@H](C(C)C)[C@H](CNC(=O)Cn4cnnn4)C=C3C)nc2n1, CC(C)(C)c1cc(C[C@@H]2C[C@H](NS(=O)(=O)c3ccccc3)C2(C)C)no1, Cc1cc(-c2nccc3c(=O)cc(N(C)C)oc23)ccn1, COc1cc(Nc2ncc(F)c(Nc3ccc4c(n3)N(COP(=O)(O)O)C(=O)C(C)(C)O4)n2)cc(OC)c1OC
